This note sets out measurements from PubChem BioAssay AID488969 (Vanderbilt High Throughput Screening Facility, 2010).

The full ranking holds about 110,000 compounds; the median of “z-score” is about -0.1, and the highest 2% start at about 2. The list shows a part of the results. Calls of active or inactive are those of the source.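 How the source made its calls: active means z-score in the third read window above 3 or below -3; inactive means the rest.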

The assay has as its target Metabotropic glutamate receptor 8 (Rattus norvegicus) (UniProt P70579). The experiment in a line: rat mGluR8 modulators via GIRK flux, primary screen, cell-based, thallium flux, HTS (AID 488969). Conditions: HEK293 rat mGluR8, GIRK (G protein-gated inwardly rectifying potassium channel) thallium flux, FluoZin2; at 10 µM; stronger effect = higher value; submaximal glutamate (EC20) added with thallium.
Sequence of UniProt P70579 (P70579 whole entry, looked up): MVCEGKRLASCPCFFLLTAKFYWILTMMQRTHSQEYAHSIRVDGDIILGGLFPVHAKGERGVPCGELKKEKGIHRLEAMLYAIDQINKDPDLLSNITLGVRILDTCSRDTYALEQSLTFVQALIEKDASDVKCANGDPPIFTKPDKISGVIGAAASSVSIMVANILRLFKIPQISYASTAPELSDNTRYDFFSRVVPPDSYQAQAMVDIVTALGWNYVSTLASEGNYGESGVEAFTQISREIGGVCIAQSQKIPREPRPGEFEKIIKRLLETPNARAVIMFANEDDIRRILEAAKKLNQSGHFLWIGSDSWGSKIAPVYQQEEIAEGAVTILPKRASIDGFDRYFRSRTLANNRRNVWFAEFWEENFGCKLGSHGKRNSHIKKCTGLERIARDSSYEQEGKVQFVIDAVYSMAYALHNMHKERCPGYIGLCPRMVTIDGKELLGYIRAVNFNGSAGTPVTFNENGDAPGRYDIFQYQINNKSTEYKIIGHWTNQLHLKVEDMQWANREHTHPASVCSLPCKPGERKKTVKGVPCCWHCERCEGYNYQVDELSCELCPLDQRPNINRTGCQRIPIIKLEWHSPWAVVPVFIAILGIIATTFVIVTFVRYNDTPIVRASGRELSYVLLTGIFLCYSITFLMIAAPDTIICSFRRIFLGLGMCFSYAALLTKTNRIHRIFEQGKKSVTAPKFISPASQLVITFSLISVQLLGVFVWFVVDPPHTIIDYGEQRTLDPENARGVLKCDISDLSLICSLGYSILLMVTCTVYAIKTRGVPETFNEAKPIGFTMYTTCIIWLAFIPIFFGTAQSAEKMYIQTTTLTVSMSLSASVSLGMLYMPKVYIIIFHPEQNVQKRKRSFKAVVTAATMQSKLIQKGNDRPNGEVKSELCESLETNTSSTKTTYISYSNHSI
Turning to `CC(=O)N1N=C(c2ccc(Br)cc2)CC1c1cn(C)c2ccccc12` (stereo not drawn), the z-score is -0.26. Under `CC(C)Cc1nnc(NC(=O)c2cc(-c3ccccc3)nc3ccccc23)s1` stands -0.456; under `CCCn1c(=N)c(C(=O)NC2CCCC2)cc2c(=O)n3cccc(C)c3nc21`, 0.787; under `CC12CCC(C(=O)N3CCN(c4ncccn4)CC3)(c3nc4ccccc4nc31)C2(C)C` (stereo not drawn), -0.165. Under `CCCCC(=O)Nc1nc(C)c(C(C)=O)s1` stands 0.65; under `Cc1cc(N=Cc2cc(Br)ccc2O)no1`, -1.2. Regarding `COC(=O)c1cc(OC)c(OC)cc1NC(=S)Nc1cccc(Cl)c1`, the z-score is 0.731. As for `CCOC(=O)C1=C(N)n2c(s/c(=C/c3ccccc3)c2=O)=C(C(=O)OCC)C1c1ccccc1` (stereo not drawn), the figure is 0.723. With `O=C(c1ccco1)N1C(=O)c2cccc3cccc1c23`, the z-score is -0.63.

Take `Cc1cc(C)cc(OCC(=O)NNC(=O)CN2C(=O)c3ccccc3C2=O)c1`: the z-score amounted to 1.83. As for `CCOc1ccc(C(=O)NCC(C)CN(C)C)cc1OCC` (stereo not drawn), the figure is 0.128; as for `CCOc1ccccc1NC(=O)COC(=O)Cc1ccc(-c2ccccc2)cc1`, -0.43; as for `CCOC(=O)c1c(SC)nc(SC)c2c1CCC2`, -0.3.

On to `COCCNC(=O)c1cc2sc3ccccc3c2s1`, for which the z-score is -0.125. Under `CC(C)=C1SC(N2CCN(c3cccc(C(F)(F)F)c3)CC2)=NC1=O` stands -0.205; under `Cc1noc(C)c1S(=O)(=O)Nc1ccc(C(=O)N2CCCCC2)cc1`, -0.2; under `COc1ccc(CNC(=O)C2CC=CCC2C(=O)O)cc1OC` (stereo not drawn), -0.532. With `CCc1ccc(N(C(=O)c2ccco2)C(C(=O)NC2CCCC2)c2ccco2)cc1` (stereo not drawn), the z-score is -1.06.

Compound `CCCCCC1CC(CC(=O)Nc2ccc([N+](=O)[O-])cc2)C(=O)O1` (stereo not drawn) had a z-score of 0.574.

As for `CC(c1ccccc1)C1CC(=O)N(c2ccc(C(=O)O)cc2)C1=O` (stereo not drawn), the z-score is -0.795.

As to `O=C1Nc2ccccc2S/C1=C/Nc1cccc(Cl)c1`, the z-score is -0.29. As for `Cc1ccc(NC(=O)COC(=O)c2ccc3c(c2)NC(=O)C2CCCN32)cc1C` (stereo not drawn), the figure is -0.301; as for `N#CCSc1nc2c(cc1C#N)CCCCCC2`, -0.538; as for `Clc1ccc(SCCn2cncn2)cc1`, -0.181. In turn, `C/C(=N\O)c1ccc2c3ccccc3n(C)c2c1` showed a z-score of 0.769. Turning to `COc1ccc(-c2nc(C#N)c(NCCc3ccccc3)o2)cc1`, the z-score is -0.307. As for `N#C/C(=C/c1ccc(N2CCOCC2)o1)c1nc2ccccc2[nH]1`, the figure is active: -3.93; as for `O=C(O)C1CC1C(=O)N1CCN(c2ccc(Cl)c(Cl)c2)CC1` (stereo not drawn), -0.173. Turning to `Nc1nc2n(n1)C(c1cccs1)CC(c1ccc(F)cc1)N2` (stereo not drawn), the z-score was active: 6.13. With `CCOc1ccc(C(C)=O)cc1COC(=O)C1=COCCO1`, the z-score is -1.15.

`O=C(/C=C/c1ccco1)NC(=S)Nc1nc(-c2ccc(Cl)cc2)cs1`: the z-score is -0.111. In the case of `CCOC(=O)CCc1c(C)c2ccc(OCc3ccc([N+](=O)[O-])cc3)cc2oc1=O`, the z-score is -0.187. Under `CCOc1nc(-c2ccc(Cl)cc2Cl)ccc1C#N` stands -0.211; under `CCOC(=O)c1cc(-c2ccccc2)n(CCC(=O)NC(C)CC)c1C` (stereo not drawn), -0.204. With `COC(=O)c1c(NC(=O)Cc2cccs2)sc(C(=O)NC2CCCCC2)c1C`, the z-score is -2. As for `COCCOC(=O)c1c(C)nc(SCC(=O)Nc2cccc3ccccc23)c(C#N)c1-c1ccco1`, the figure is 0.0821; as for `O=C(NCc1cccs1)C1CCCN(S(=O)(=O)c2ccc(Br)s2)C1` (stereo not drawn), 0.219.

The compound `CCOC(=O)Cc1csc(NC(=O)c2sc3nc4cc(C)ccc4cc3c2N)n1` displayed a z-score of 0.522. Regarding `CCN1CCN(Cc2cc(=O)oc3cc(C)cc(C)c23)CC1`, the z-score was 1.61. As for `Cc1ccc(S(=O)(=O)N(CC(=O)NCc2ccco2)Cc2ccccc2F)cc1`, the figure is -1.28; as for `COC(=O)Cc1c(C)nc2nc(-c3ccc(OC)cc3)[nH]n2c1=O`, -0.0668; as for `O=C1OC(N2CCN(c3ccccn3)CC2)c2ccccc21` (stereo not drawn), -0.174. With `Clc1ncnc2scc(C3COc4ccccc4O3)c12` (stereo not drawn), the z-score was -0.228. For the compound `C=CCSC1=C(C#N)C(c2ccccc2OC)CC(=O)N1` (stereo not drawn), the z-score was -1.09. As for `COc1ccc2[nH]c(C(O)(Cc3cccnc3)Cc3cccnc3)cc2c1`, the figure is -0.149; as for `O=C(NCc1ccco1)c1cccc(NC(=O)c2ccccc2)c1`, -0.268.

For `S=C(N/N=C/c1ccccc1Cl)Nc1ccccc1`, the z-score was active: 6.51.

In the case of `CCOc1ccc(C(=O)Nc2cc(S(=O)(=O)Nc3ccccc3Cl)ccc2N2CCOCC2)cc1`, the z-score was -0.333.

`COc1ccc(/C=N/NC(=O)Nc2nonc2N)cc1` returned a z-score of 0.0345. Under `Cc1ccc2cc(CN(Cc3ccc(F)cc3)Cc3nnnn3C3CCCC3)c(=O)[nH]c2c1` stands 0.356. In the case of `COc1ccc(CCNC(=O)C(C)OC(=O)c2ccco2)cc1OC` (stereo not drawn), the z-score came to 1.68. As for `COc1cccc(OC)c1OCCCCCc1c(C)n[nH]c1C`, the figure is -0.231; as for `Cc1cnn(Cc2ccccc2)c1N`, 0.892.

Take `CC(c1ccccc1)n1cc(C(=O)NCc2ccncc2)nn1` (stereo not drawn): the z-score is -0.253. For `COCCNC(=O)C(C)OC(=O)c1cc2occc2n1C` (stereo not drawn), the z-score turned out to be 0.254. Under `COc1ccc(NC(=O)c2noc3c2CCC3)cc1` stands -0.49; under `CC(C)N1C(=S)SC2CS(=O)(=O)C=C21` (stereo not drawn), 0.775; under `O=C(COC(=O)C1CC(=O)N(Cc2ccco2)C1)c1ccc(OC(=O)c2ccccc2)cc1` (stereo not drawn), -0.101. As for `COc1ccc(/C=C(/C(=O)c2cccs2)N2C=CC=CC2=C(C#N)C#N)cc1`, the figure is -0.343; as for `O=C(N/N=C/c1ccc(F)cc1)c1c(O)c2ccccc2[nH]c1=O`, 0.0579. As for `O=C(CNC(=O)c1ccccc1)OCc1cccc([N+](=O)[O-])c1`, the figure is -0.474. As to `O=C(COc1ccc(Cl)cc1)OCc1csc(Nc2ccccc2)n1`, the z-score was -0.357. Consider `COc1cc2c(cc1NC(=O)CSc1ccc(C)cc1)oc1ccccc12`, for which the z-score is -0.272. As for `CCN1CCN(c2ncnc3c2nnn3Cc2ccccc2)CC1`, the z-score is -0.609. Under `O=C(Oc1ccccc1)Oc1ccc2c(c1)oc(=O)c1ccccc12` stands -0.0309. As for `CCC(=O)Nc1nc(C)c(C(=O)N2CCCCC2)s1`, the figure is -0.122; as for `O=C(CSc1ncn[nH]1)Nc1ccc(Br)cc1F`, -0.355; as for `O=C(N/N=C/c1ccncc1)/C(=C/c1ccccc1)NC(=O)c1ccccc1`, -0.184. As for `CN1CCN(c2ncccc2S(=O)(=O)N2CCCCC2)CC1`, the figure is 0.0306; as for `O=C1OCCN1CCN(CN1C(=O)CCC1=O)CN1C(=O)CCC1=O`, -2.56. As for `CCCCN(CCCC)C(=O)CCS(=O)(=O)c1ccc2c(c1)n(C)c(=O)c(=O)n2C`, the z-score was -0.298. Under `Cc1nc(-c2ccc(O)c(O)c2)cs1` stands -0.0555; under `O=C(O)CCCNc1cc(N2CCC3(CC2)OCCO3)c2noc3c2c1C(=O)c1ccccc1-3`, -1.52.
